# Test results as given in PubChem BioAssay AID463173 (ICCB-Longwood Screening Facility, Harvard Medical School, 2010).
# About 4,300 (8.3%) of roughly 52,000 compounds were called active. Cut-off read from the data, not from the text of the source: active = survival mostly below about 52% (no sharp cut-off); inactive = mostly above about 56%. The list shows a part of the results.
# System: DeltatarO mutant
# Assay: growth inhibition of S. aureus wild type versus tarO mutant, primary screen, teichoic acid synthesis inhibitors, RN4220, OD600 (AID 463173)
# Conditions: OD600, 18 h, hits give low values, screened at 18.75 µg/mL (by protocol)
row,Compound,survival
1,CCOc1ccc2c(c1)c(=O)c(C(=O)c1ccc(CC)cc1)cn2CC(=O)Nc1ccc2c(c1)OCCO2,inactive: 65%
2,O=C(CSCCO)N1CCc2ccccc21,inactive: 102%
3,COc1cccc(NC(=O)Cn2c(=O)n(CCC(=O)NCc3ccccc3OC)c(=O)c3ccccc32)c1,inactive: 72%
4,COc1ccc(Cl)cc1NC(=O)Cn1c(=O)n2nc(-c3ccccc3)nc2c2ccccc21,inactive: 78%
5,Cc1ccccc1C(=O)NC1CCN(Cc2nnnn2Cc2ccccc2)CC1,inactive: 87%
6,CCc1cccc(C)c1Nc1nn2c(=O)c3ccccc3nc2s1,inactive: 94%
7,COc1ccc(N(C)S(=O)(=O)c2ccc3c(c2)CCN3C(=O)CCC(=O)O)cc1,inactive: 87%
8,CCOC(=O)c1ccc(N2C(=O)c3n[nH]c(-c4ccco4)c3C2c2ccccc2OC)cc1 (centres undefined),inactive: 53%
9,COc1ccc(NC(=O)c2ccco2)cc1NC(=O)c1ccccc1[N+](=O)[O-],inactive: 49%
10,Cc1ccc(NC(=O)Cn2c(=O)n(Cc3ccccc3)c(=O)c3c(C)c(C(=O)N(C)C)sc32)c(C)c1,inactive: 78%
11,COc1ccc(-c2noc(CN(C(=O)c3ccc(C)cc3C)C(C)C)n2)cc1,active: -3%
12,Cc1ccc(C(=O)NCCc2csc(-c3cccc(F)c3)n2)cc1C,inactive: 99%
13,CCN(C(=O)c1c(C)oc2ncnc(N3CCCCC3)c12)c1cc(C)ccc1C,inactive: 95%
14,COc1ccc(C2CC(=O)Nc3c2c(C)nn3-c2nncc(-c3ccccc3)n2)c(OC)c1OC (centres undefined),inactive: 52%
15,COc1cc2nc(NCCc3cccc(C)c3)n3nc(-c4ccccc4)nc3c2cc1OC,inactive: 59%
16,CCOC(=O)c1cccc(NC(=O)COc2ccc3c(C)cc(=O)oc3c2)c1,inactive: 70%
17,CCOC(=O)c1cnc2c(ccc3ccccc32)c1Nc1ccccc1O,inactive: 69%
18,Cc1cc(=O)n2nc(N3CCC(C(=O)Nc4ccc(Br)c(C)c4)CC3)sc2n1,inactive: 102%
19,CCOC(=O)CSc1nc(-c2cccnc2)nn1C(=O)c1ccccc1,inactive: 79%
20,COCCNC(=O)c1ccc(Cn2c(SCC(N)=O)nc3ccccc3c2=O)cc1,inactive: 115%
21,COc1ccc2[nH]c(=O)c(CN(Cc3ccc4c(c3)OCO4)Cc3nnnn3CCc3ccccc3)cc2c1,inactive: 103%
22,Cn1c(SCc2ccc(F)cc2)nc2ccc(C(=O)NCc3cccc(Cl)c3)cc21,active: 56%
23,COc1cccc(OCCSc2nc3ccccc3n2CC(=O)N2CCOCC2)c1,active: 44%
24,COc1ccc2c(CNC3CCC(C)CC3)c(C(=O)O)n(Cc3ccc(F)cc3)c2c1 (centres undefined),inactive: 70%
